Numbering of substitutions follows the chain as printed; changes in the protein carry UniProt numbers. This is one part of the list.
T1: RBFOX1 RRM RbFoxmut (Fox-RRM*) (Homo sapiens, UniProt Q9NWB1 109-208, R118D;E147R;N151S;E152T)
T1 sequence: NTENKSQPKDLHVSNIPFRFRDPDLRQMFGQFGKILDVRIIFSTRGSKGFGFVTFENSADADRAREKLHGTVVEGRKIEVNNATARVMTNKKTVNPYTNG

B1: AAUGCCU (DNA:RNA)
RNA: GGGAGACCGGAAUUCAGAUUGUCCAAUGCCUUUAAAUCCCGUCGUAGCCACCA
DNA 1: CAATCTGAATTCCGGTCTCCC
DNA 2: TGGTGGCTACGACGGGATT
B2: GCCUCAA (DNA:RNA)
RNA: B1 RNA with A25G, A26C, U27C, G28U, C30A, U31A
DNA 1: CAATCTGAATTCCGGTCTCCC
DNA 2: TGGTGGCTACGACGGGATT
B3: UAAUGCU (DNA:RNA)
RNA: B1 RNA with A25U, U27A, G28U, C29G
DNA 1: CAATCTGAATTCCGGTCTCCC
DNA 2: TGGTGGCTACGACGGGATT
B4: UUAGGCU (DNA:RNA)
RNA: B1 RNA with A25U, A26U, U27A, C29G
DNA 1: CAATCTGAATTCCGGTCTCCC
DNA 2: TGGTGGCTACGACGGGATT
B5: AAAAGCA (DNA:RNA)
RNA: B1 RNA with U27A, G28A, C29G, U31A
DNA 1: CAATCTGAATTCCGGTCTCCC
DNA 2: TGGTGGCTACGACGGGATT
B6: GACGUGC (DNA:RNA)
RNA: B1 RNA with A25G, U27C, C29U, C30G, U31C
DNA 1: CAATCTGAATTCCGGTCTCCC
DNA 2: TGGTGGCTACGACGGGATT
B7: AUUUCAA (DNA:RNA)
RNA: B1 RNA with A26U, G28U, C30A, U31A
DNA 1: CAATCTGAATTCCGGTCTCCC
DNA 2: TGGTGGCTACGACGGGATT
B8: GCGCGGG (DNA:RNA)
RNA: GGGAGACCGGAAUUCAGAUUGUCCGCGCGGGUUAAAUCCCGUCGUAGCCACCA
DNA 1: CAATCTGAATTCCGGTCTCCC
DNA 2: TGGTGGCTACGACGGGATT
B9: GACGUUG (DNA:RNA)
RNA: B1 RNA with A25G, U27C, C29U, C30U, U31G
DNA 1: CAATCTGAATTCCGGTCTCCC
DNA 2: TGGTGGCTACGACGGGATT
B10: CCCAGCG (DNA:RNA)
RNA: B8 RNA with G25C, G27C, C28A, G30C
DNA 1: CAATCTGAATTCCGGTCTCCC
DNA 2: TGGTGGCTACGACGGGATT
B11: CUUAACA (DNA:RNA)
RNA: B1 RNA with A25C, A26U, G28A, C29A, U31A
DNA 1: CAATCTGAATTCCGGTCTCCC
DNA 2: TGGTGGCTACGACGGGATT
B12: UUCAUAU (DNA:RNA)
RNA: B1 RNA with A25U, A26U, U27C, G28A, C29U, C30A
DNA 1: CAATCTGAATTCCGGTCTCCC
DNA 2: TGGTGGCTACGACGGGATT
B13: AGCGCGC (DNA:RNA)
RNA: B1 RNA with A26G, U27C, C30G, U31C
DNA 1: CAATCTGAATTCCGGTCTCCC
DNA 2: TGGTGGCTACGACGGGATT
B14: CACUAAG (DNA:RNA)
RNA: B1 RNA with A25C, U27C, G28U, C29A, C30A, U31G
DNA 1: CAATCTGAATTCCGGTCTCCC
DNA 2: TGGTGGCTACGACGGGATT
B15: CGAUUGU (DNA:RNA)
RNA: B1 RNA with A25C, A26G, U27A, G28U, C29U, C30G
DNA 1: CAATCTGAATTCCGGTCTCCC
DNA 2: TGGTGGCTACGACGGGATT
B16: CGGAUGU (DNA:RNA)
RNA: B8 RNA with G25C, C26G, C28A, G29U, G31U
DNA 1: CAATCTGAATTCCGGTCTCCC
DNA 2: TGGTGGCTACGACGGGATT
B17: UGGCAAA (DNA:RNA)
RNA: B8 RNA with G25U, C26G, G29A, G30A, G31A
DNA 1: CAATCTGAATTCCGGTCTCCC
DNA 2: TGGTGGCTACGACGGGATT
B18: GUCGAGA (DNA:RNA)
RNA: B8 RNA with C26U, G27C, C28G, G29A, G31A
DNA 1: CAATCTGAATTCCGGTCTCCC
DNA 2: TGGTGGCTACGACGGGATT
B19: GCCCCAG (DNA:RNA)
RNA: B8 RNA with G27C, G29C, G30A
DNA 1: CAATCTGAATTCCGGTCTCCC
DNA 2: TGGTGGCTACGACGGGATT
B20: AGCGCUG (DNA:RNA)
RNA: B1 RNA with A26G, U27C, C30U, U31G
DNA 1: CAATCTGAATTCCGGTCTCCC
DNA 2: TGGTGGCTACGACGGGATT
B21: CGACGGA (DNA:RNA)
RNA: B8 RNA with G25C, C26G, G27A, G31A
DNA 1: CAATCTGAATTCCGGTCTCCC
DNA 2: TGGTGGCTACGACGGGATT
B22: GCGUAAA (DNA:RNA)
RNA: B8 RNA with C28U, G29A, G30A, G31A
DNA 1: CAATCTGAATTCCGGTCTCCC
DNA 2: TGGTGGCTACGACGGGATT
B23: GCAGAUC (DNA:RNA)
RNA: B8 RNA with G27A, C28G, G29A, G30U, G31C
DNA 1: CAATCTGAATTCCGGTCTCCC
DNA 2: TGGTGGCTACGACGGGATT
B24: CUCCCAC (DNA:RNA)
RNA: B1 RNA with A25C, A26U, U27C, G28C, C30A, U31C
DNA 1: CAATCTGAATTCCGGTCTCCC
DNA 2: TGGTGGCTACGACGGGATT
B25: CUUACAU (DNA:RNA)
RNA: B1 RNA with A25C, A26U, G28A, C30A
DNA 1: CAATCTGAATTCCGGTCTCCC
DNA 2: TGGTGGCTACGACGGGATT
B26: GCAGACC (DNA:RNA)
RNA: B1 RNA with A25G, A26C, U27A, C29A, U31C
DNA 1: CAATCTGAATTCCGGTCTCCC
DNA 2: TGGTGGCTACGACGGGATT
B27: GGUACUA (DNA:RNA)
RNA: B1 RNA with A25G, A26G, G28A, C30U, U31A
DNA 1: CAATCTGAATTCCGGTCTCCC
DNA 2: TGGTGGCTACGACGGGATT
B28: CCGCGAC (DNA:RNA)
RNA: B8 RNA with G25C, G30A, G31C
DNA 1: CAATCTGAATTCCGGTCTCCC
DNA 2: TGGTGGCTACGACGGGATT
B29: UGCAAUG (DNA:RNA)
RNA: B8 RNA with G25U, C26G, G27C, C28A, G29A, G30U
DNA 1: CAATCTGAATTCCGGTCTCCC
DNA 2: TGGTGGCTACGACGGGATT
B30: AUCAUGC (DNA:RNA)
RNA: B1 RNA with A26U, U27C, G28A, C29U, C30G, U31C
DNA 1: CAATCTGAATTCCGGTCTCCC
DNA 2: TGGTGGCTACGACGGGATT
B31: CUUAUUC (DNA:RNA)
RNA: B1 RNA with A25C, A26U, G28A, C29U, C30U, U31C
DNA 1: CAATCTGAATTCCGGTCTCCC
DNA 2: TGGTGGCTACGACGGGATT

Molecular target: T1, RBFOX1 RRM RbFoxmut (Fox-RRM*)
Assay: EMSA; HiTS-Eq, 1 nM pool, 10 min; buffer printed only for the single-RNA assays: 10 mM Tris pH 7.5, 150 mM NaCl, 3.4 mM EDTA, 0.001% NP-40, 30 C
Details: tags: His6 N-terminal (pET28a); label: 5' 32P
In short: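 Purified RbFox RRM, wild type or mutant, was incubated for 10 min in 50 µL with 1 nM of a 5′-radiolabelled RNA pool carrying 7 randomized nucleotides, whose flanks were annealed to DNA oligonucleotides, over a series of increasing protein concentrations. Unbound RNA was resolved on 8% native PAGE, cut out, reverse-transcribed, barcoded by PCR and sequenced on an Illumina HiSeq 2500. Relative association constants were derived from changes in read counts for each RNA species versus the control reaction and normalised to the cognate motif.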

| Binder | binding signal |
| --- | --- |
| B1 | 0.0832 KA relative to UGCAUGU |
| B2 | 0.093 KA relative to UGCAUGU |
| B3 | 0.0885 KA relative to UGCAUGU |
| B4 | 0.0832 KA relative to UGCAUGU |
| B5 | 0.0974 KA relative to UGCAUGU |
| B6 | 0.118 KA relative to UGCAUGU |
| B7 | 0.0991 KA relative to UGCAUGU |
| B8 | 0.0952 KA relative to UGCAUGU |
| B9 | 0.117 KA relative to UGCAUGU |
| B10 | 0.102 KA relative to UGCAUGU |
| B11 | 0.0889 KA relative to UGCAUGU |
| B12 | 0.115 KA relative to UGCAUGU |
| B13 | 0.0969 KA relative to UGCAUGU |
| B14 | 0.146 KA relative to UGCAUGU |
| B15 | 0.206 KA relative to UGCAUGU |
| B16 | 0.281 KA relative to UGCAUGU |

| Binder | binding signal |
| --- | --- |
| B17 | 0.075 KA relative to UGCAUGU |
| B18 | 0.0842 KA relative to UGCAUGU |
| B19 | 0.117 KA relative to UGCAUGU |
| B20 | 0.0951 KA relative to UGCAUGU |
| B21 | 0.071 KA relative to UGCAUGU |
| B22 | 0.0945 KA relative to UGCAUGU |
| B23 | 0.0732 KA relative to UGCAUGU |
| B24 | 0.107 KA relative to UGCAUGU |
| B25 | 0.0902 KA relative to UGCAUGU |
| B26 | 0.0636 KA relative to UGCAUGU |
| B27 | 0.0754 KA relative to UGCAUGU |
| B28 | 0.0861 KA relative to UGCAUGU |
| B29 | 0.242 KA relative to UGCAUGU |
| B30 | 0.129 KA relative to UGCAUGU |
| B31 | 0.0884 KA relative to UGCAUGU |
